The source gives no read counts; variants with many changes may rest on few reads.
B1: OR4K15 (parent)
chain: GUUAACGGUCAUAGGCCAUGGAAACUAGGAGCACCAUUUCGCUGCCAGUGAAGAAAUGAACAAAGAAAAUCUGGGCCAGGCAGGCAUCAAAAGAAAUAGUCUUGCGCUCAACCAGAAAGUCUGUAAUCAUUUUAAGGGUA

Variants of: B1
Assay: self-cleavage, relative activity (ratio to wild type); higher = more cleavage; in vitro, sequencing; the parent is a self-cleaving ribozyme

Variant	self-cleavage
U38C U39C A129U	0.93
U38C U49A A91G U130C	0.41
G41A A67G A116G	0.51
U38C G83A U87C	1.92
U39C A56G U127C	1.17
C40U A69G A96G	1.6
U39C A55G U57A A59G U131C U139C	1.32
U39C A52G A54U A90G	1.25
U39C C42A A62G U132C	0.42
U39A A54G A66G U103A	0.54
U39C U43C U139C	0.98
U38C A89C U120C	0.94
U39C A82U A116U U139A A140G	0.04
U39C A134G A135G	1.12
C40U A60G U132C	1.74
U38C A64G A110G U127C	0.1
U38C U39C U49C A55G	0.23
U39C A82G A98U C112U	0.03
U38C U49C A78G U131C	0.13
U38C A78U A117G	0.09
U39C A68G A95C U133C	1.16

Variant	self-cleavage
U38A A68G A90G	1.72
U39C A59G A68G A110G	0.06
U38C A91G A95G G115A	0.38
U39A A116C U127A	0.15
U39C C85U A129G	1.05
U39A A54G A68G	1.07
U38C U49G A62G G74U A94G A129U	0.1
U38C A54G A59G A89G A94G	1.14
U38C A56G A62U	1.48
U38C C61U A64G	1.19
U38C U49C C105U	0.25
U38C A52U U102A	0.69
U38C A51G U97C U108C	0.02
G41A A64U U87C	1.76
U38A A54U A56G U72C	0.3
U39C A54C A89U	1.71
G41A A59G U72C G99A U132C	0.08
U38A A64G A86U U122C	1.09
U39C A92G A126G	1.3
U38A A54U A117U	1.2
U38C U43C A64U C77U A114U	0.13

Variant	self-cleavage
U38C U108A A114U	0
U38C A52G A56G A82G U103C U108A	0.03
C40U A125G U127C	0.23
U39A C81U U100C U103C U120A	0.73
U39A A54U U70C G80A A92G	0.13
U39C A69G A86G A140G	1.14
U39A C46A A67G	0.62
U38C A56G A95G	2.22
U39C A54G U130C	1.02
U38C A54G A64G U131C	1.53
U38C G58U U122A	1.21
U39A U49C U72C U131C	0.13
U38C A59U U100C U132G	1.65
U38C U43C A69G A96U A116G	0.83
U38C A55G A90G U100C A116G A129G	1.28
U39C A59G A63C A116G	1.04
U39C A78G A82U U127C	0.01
U39C G48A A68G	0.76
U39C U57C A110G A111G	0.03
U39C A51G A78G A91C A92U	0.14
U38A A116C U132G	0.06

Variant	self-cleavage
C40A U43A U49A G53A A59G A129G A135C	0.39
U39A A114G U130C A135C A140G	0.05
U39A A86U G137A	2.41
U38C A66G U130C U139A	1.51
U38A A62U A82G	0.65
U38C U43C A110G A114G U120C	0
U39C A82G U102C	0.78
U39C A67U A92U A96G U132A	2.81
U39A A129U A140G	1.71
U38C G93U U133C	2.12
U38C U72C A94C	0.13
U39C U57C G106U	0.02
U39C G74A U97A U103A U120C	0.02
U39C A55G U124C	1.72
U38C A51G A55G A62G A90G U103C	0.48
U38C A68G A91G A125C	0.52
U38C A51G A92G	1.4
U39C A51U A62G A78G A118U	0.12
U39A A51G A86U A95G	2.52
U39C A89G A94G A114U	0.01
U38C A64G U103C U127C A134G	0.55

Reference: the RNAGym collection of RNA variant scans (doi:10.7554/elife.90254)
